A lower IC50 marks a more sensitive line; a limit (>, <) means that the fit lies beyond the doses tested. AUC sums up the same curve from the lowest dose to the 256-fold higher top dose; values near 1 show little effect. For part of these data: The top dose, if marked as inferred, comes from the curve model; the source does not state it.
How the values were obtained:
Experiment in all cases: Viability of human cancer cell lines after 72 h of drug (GDSC screen)
[1] = compound: COc1cccc2cc(-c3nc([C@H]4CC[C@H](C(=O)O)CC4)n4ncnc(N)c34)[nH]c12 [OSI-027]; settings: top dose 20 µM
Method: (§1)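 Human cancer cell lines in 384-well plates, medium with 10% serum, drug for 72 h over a 256-fold dose range (nine 2-fold or five 4-fold steps up to the top dose). Adherent lines were fixed and stained with the nucleic acid dye Syto60, suspension lines read with resazurin; signal relative to control wells, capped at 0 and 100%. One two-parameter sigmoid per drug and line, fitted in a mixed model over all curves with the slope shared within a line.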

[2] = compound: O=C(c1ccc(C(=O)N2CCC(N3CCCC3)CC2)c(Nc2ccccc2)c1)N1CCC(N2CCCC2)CC1 [UNC1215]; settings: top dose 1 µM; top dose inferred
Method: as §1

[3] = compound: CN(C)Cc1cccc(N=C(c2ccccc2)c2c(O)[nH]c3cc(C(=O)N(C)C)ccc23)c1 [BIX02189]; settings: top dose 20 µM; top dose inferred
Method: as §1

[4] = compound: COc1cccc2c1C(=O)c1c(O)c3c(c(O)c1C2=O)C[C@@](O)(C(=O)CO)C[C@@H]3O[C@H]1C[C@H](N)[C@H](O)[C@H](C)O1 [Doxorubicin]; settings: top dose 1.024 µM
Method: as §1

[5] = compound: C=CCNC1=C2C[C@@H](C)C[C@H](OC)[C@H](O)[C@@H](C)/C=C(\C)[C@H](OC(N)=O)[C@@H](OC)/C=C\C=C(/C)C(=O)NC(=CC1=O)C2=O [17-AAG]; settings: top dose 1 µM
Method: as §1

[6] = compound: CS(=O)(=O)c1ccc(C(=O)Nc2ccc(Cl)c(-c3ccccn3)c2)c(Cl)c1 [Vismodegib]; settings: top dose 10 µM; top dose inferred
Method: as §1

[7] = compound: COC(=O)CNC(=O)C(=O)OC [Dimethyloxalylglycine]; settings: top dose 4000 µM; top dose inferred
Method: as §1

[8] = compound: CCc1cc(-c2n[nH]c(C)c2-c2ccc3c(c2)OCCO3)c(O)cc1O [CCT018159]; settings: top dose 10 µM; top dose inferred
Method: as §1

[9] = compound: Cc1cnc(Nc2ccc(OCCN3CCCC3)cc2)nc1Nc1cccc(S(=O)(=O)NC(C)(C)C)c1 [TG101348]; settings: top dose 10.24 µM
Method: as §1

[10] = compound: Cc1cnc(Nc2ccc(F)cc2Cl)nc1-c1c[nH]c(C(=O)N[C@H](CO)c2cccc(Cl)c2)c1 [VX-11e]; settings: top dose 5.12 µM; top dose inferred
Method: as §1

Cell Line	AUC [1]	IC50 [1]	AUC [2]	IC50 [2]	AUC [3]	IC50 [3]	AUC [4]	AUC [5]	IC50 [5]	AUC [6]	IC50 [6]	AUC [7]	IC50 [7]	AUC [8]	IC50 [8]	AUC [9]	IC50 [9]	AUC [10]	IC50 [10]	IC50 [4]
HT-1376 (bladder, adherent)	0.98	> 20 µM	0.98	> 1 µM	0.985	> 20 µM	0.657	0.596	0.12 µM	0.985	> 10 µM	0.554	362 µM	0.941	> 10 µM	0.96	> 10.2 µM	0.985	> 5.12 µM	
P31-FUJ (acute myeloid leukaemia, suspension)	0.901	14.9 µM	0.994	> 1 µM	0.992	> 20 µM	0.99	0.995	> 1 µM	0.994	> 10 µM	0.919	3510 µM	0.995	> 10 µM	0.925	9.56 µM	0.985	> 5.12 µM	> 1.02 µM
LS-411N (large intestine, adherent)	0.567	1.98 µM	0.978	> 1 µM	0.96	> 20 µM	0.554	0.77	0.462 µM	0.969	> 10 µM	0.866	> 4000 µM	0.939	> 10 µM	0.821	7.71 µM	0.582	0.562 µM	0.093 µM
SKN-3 (head and neck, adherent)	0.739	6.94 µM	0.978	> 1 µM	0.922	> 20 µM	0.946	0.977	> 1 µM	0.954	> 10 µM	0.841	3560 µM	0.94	> 10 µM	0.929	> 10.2 µM	0.942	> 5.12 µM	> 1.02 µM
NCI-H520 (lung squamous cell carcinoma, adherent)	0.232	0.202 µM	0.986	> 1 µM	0.733	5.91 µM	0.735	0.734	0.297 µM	0.987	> 10 µM	0.601	478 µM	0.946	> 10 µM	0.719	2.73 µM	0.957	> 5.12 µM	0.308 µM
P32-ISH (Burkitt lymphoma, suspension)	0.192	0.212 µM	0.992	> 1 µM	0.902	14.5 µM	0.586	0.995	> 1 µM	0.983	> 10 µM	0.34	102 µM	0.995	> 10 µM	0.854	5.16 µM	0.979	> 5.12 µM	0.103 µM
BC-1 (B-cell lymphoma, suspension)	0.087	< 0.0781 µM	0.958	> 1 µM	0.931	> 20 µM	0.55	0.818	0.459 µM	0.986	> 10 µM	0.329	90.4 µM	0.921	> 10 µM	0.579	1.02 µM	0.949	> 5.12 µM	0.0859 µM
KU812 (chronic myeloid leukaemia, suspension)	0.254	0.267 µM	0.984	> 1 µM	0.941	> 20 µM	0.421	0.864	0.747 µM	0.969	> 10 µM	0.191	33.3 µM	0.939	> 10 µM	0.791	4.15 µM	0.908	> 5.12 µM	0.0397 µM
NCI-H1693 (lung adenocarcinoma, adherent)	0.584	2.43 µM	0.966	> 1 µM	0.829	> 20 µM	0.682	0.959	> 1 µM	0.947	> 10 µM	0.72	1570 µM	0.932	> 10 µM	0.85	> 10.2 µM	0.914	> 5.12 µM	0.283 µM
MC-IXC (neuroblastoma, adherent)	0.233	0.277 µM	0.996	> 1 µM	0.996	> 20 µM	0.438	0.919	0.788 µM	0.94	9.56 µM	0.347	106 µM	0.953	> 10 µM	0.931	8.97 µM	0.996	> 5.12 µM	0.0454 µM
OCI-AML2 (acute myeloid leukaemia, suspension)	0.362	0.577 µM	0.993	> 1 µM	0.78	6.18 µM	0.436	0.731	0.23 µM	0.995	> 10 µM	0.623	498 µM	0.817	3.88 µM	0.641	1.42 µM	0.472	0.273 µM	
G-361 (melanoma, adherent)	0.954	> 20 µM	0.987	> 1 µM	0.946	> 20 µM	0.373	0.746	0.307 µM	0.988	> 10 µM	0.739	1160 µM	0.936	> 10 µM	0.988	> 10.2 µM	0.845	3.46 µM	0.0291 µM
COLO-320-HSR (large intestine, suspension)	0.845	11.7 µM	0.986	> 1 µM	0.893	18.3 µM	0.818	0.992	> 1 µM	0.983	> 10 µM	0.821	1920 µM	0.898	9.66 µM	0.924	> 10.2 µM	0.974	> 5.12 µM	0.482 µM
MONO-MAC-6 (acute myeloid leukaemia, suspension)	0.106	< 0.0781 µM	0.969	> 1 µM	0.749	6.83 µM	0.646	0.774	0.415 µM	0.954	> 10 µM	0.436	165 µM	0.768	3.97 µM	0.336	0.218 µM	0.937	> 5.12 µM	0.167 µM
ECC10 (stomach, suspension)	0.503	1.27 µM	0.972	> 1 µM	0.959	> 20 µM	0.672	0.985	> 1 µM	0.951	> 10 µM	0.846	3120 µM	0.973	> 10 µM	0.821	6.27 µM	0.913	> 5.12 µM	0.198 µM
NCI-H661 (large cell lung carcinoma, adherent)	0.724	6.25 µM	0.967	> 1 µM	0.98	> 20 µM	0.454	0.72	0.303 µM	0.981	> 10 µM	0.801	2440 µM	0.875	> 10 µM	0.874	> 10.2 µM	0.918	> 5.12 µM	0.0467 µM
LU-134-A (small cell lung carcinoma, suspension)	0.804	10.8 µM	0.976	> 1 µM	0.987	> 20 µM	0.532	0.636	0.152 µM	0.975	> 10 µM	0.874	> 4000 µM	0.907	> 10 µM	0.825	6.7 µM	0.986	> 5.12 µM	0.0786 µM
OVMIU (ovary, adherent)	0.288	0.268 µM	0.978	> 1 µM	0.926	> 20 µM	0.621	0.788	0.561 µM	0.971	> 10 µM	0.872	> 4000 µM	0.86	> 10 µM	0.686	2.44 µM	0.79	2.92 µM	0.15 µM
LU-139 (small cell lung carcinoma, suspension)	0.157	< 0.0781 µM	0.98	> 1 µM	0.935	> 20 µM	0.737	0.877	> 1 µM	0.977	> 10 µM	0.454	181 µM	0.88	> 10 µM	0.735	3.69 µM	0.954	> 5.12 µM	0.376 µM
SCH (stomach, adherent)	0.926	> 20 µM	0.968	> 1 µM	0.988	> 20 µM	0.988	0.984	> 1 µM	0.983	> 10 µM	0.807	2250 µM	0.926	> 10 µM	0.958	> 10.2 µM	0.988	> 5.12 µM	> 1.02 µM
OE19 (oesophagus, adherent)	0.984	> 20 µM	0.985	> 1 µM	0.986	> 20 µM	0.567	0.415	0.0354 µM	0.977	> 10 µM	0.851	3720 µM	0.887	> 10 µM	0.981	> 10.2 µM	0.986	> 5.12 µM	0.1 µM
LU-165 (small cell lung carcinoma, suspension)	0.855	19.2 µM	0.941	> 1 µM	0.941	> 20 µM	0.815	0.987	> 1 µM	0.988	> 10 µM	0.665	765 µM	0.987	> 10 µM	0.961	> 10.2 µM	0.987	> 5.12 µM	0.652 µM
RF-48 (stomach, adherent)	0.233	0.187 µM	0.982	> 1 µM	0.797	10.8 µM	0.392	0.975	> 1 µM	0.984	> 10 µM	0.736	1300 µM	0.944	> 10 µM	0.805	5.95 µM	0.858	5.04 µM	0.0311 µM
HuCCT1 (biliary tract, adherent)	0.268	0.249 µM	0.982	> 1 µM	0.925	> 20 µM	0.529	0.737	0.325 µM	0.984	> 10 µM	0.476	213 µM	0.865	> 10 µM	0.889	> 10.2 µM	0.952	> 5.12 µM	0.0777 µM
SU-DHL-6 (B-cell lymphoma, suspension)	0.062	0.0792 µM	0.995	> 1 µM	0.885	12.3 µM	0.608	0.994	> 1 µM	0.97	> 10 µM	0.123	27 µM	0.928	8.92 µM	0.678	1.73 µM	0.976	> 5.12 µM	0.117 µM
